# PubChem BioAssay AID1461 (National Center for Advancing Translational Sciences (NCATS), 2008)
# Screen size: about 220,000 compounds; about 2,300 (1%) were called active. Inconclusive results (about 6%) are left out. Calls come from the whole dose curve; as a rule, active = well fitted inhibition curve with a large enough effect; inconclusive = small, poorly fitted or top-dose-only effect, or effect the other way; inactive = no such curve, though single readings can be large or run the other way. Only a part is listed here, and it is no random draw.
# Molecular target: Neuropeptide S receptor (Homo sapiens) (UniProt Q6W5P4)
# Chain of UniProt Q6W5P4 (Q6W5P4 whole entry, looked up): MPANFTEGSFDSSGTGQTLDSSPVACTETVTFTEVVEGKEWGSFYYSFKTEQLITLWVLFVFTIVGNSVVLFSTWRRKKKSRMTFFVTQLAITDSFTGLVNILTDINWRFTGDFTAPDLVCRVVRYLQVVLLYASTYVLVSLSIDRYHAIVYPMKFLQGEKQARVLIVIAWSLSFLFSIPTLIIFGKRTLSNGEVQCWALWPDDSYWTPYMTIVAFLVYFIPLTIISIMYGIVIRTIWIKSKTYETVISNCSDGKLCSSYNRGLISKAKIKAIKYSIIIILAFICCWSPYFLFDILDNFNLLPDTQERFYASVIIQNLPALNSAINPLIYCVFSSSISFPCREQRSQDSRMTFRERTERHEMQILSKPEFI
# Experiment: qHTS Assay for Antagonists of the Neuropeptide S Receptor: cAMP Signal Transduction; note: nearly all actives have a fitted effect of over 50% in size
# Settings: CHO-NPSR cells, cAMP TR-FRET, antagonist mode; series mostly up to 38.3 µM; activity change, negative = inhibition: at the top concentration
# Description: NIH Chemical Genomics Center [NCGC] NIH Molecular Libraries Probe Production centers Network [MLPCN] MLPCN Grant: X01-DA026210-01 Assay Submitter (PI): Heilig, Markus Alexander NCGC Assay Overview: Neuropeptide S receptor (NPSR), previously known as GPR154, is a recently de-orphanized G protein coupled receptor. Its endogenous ligand is the 20 amino acids peptide Neuropeptide S (NPS). […] NPS and its receptor are found in various tissues. Specifically they are highly expressed in brain areas that have been implicated in modulation of arousal, stress and anxiety. Central administration of NPS in mice produces an unusual profile of activity by inducing wakefulness and arousal, while at the same time suppressing anxiety. Therefore, NPSR may represent a novel drug target for the treatment of sleep and anxiety disorders. To identify NPSR antagonists, we developed a cell-based cAMP assay. NPS can stimulate the production of cAMP in Chinese hamster ovary cells stably expressing NPS receptor. This change in intracellular cAMP level can be detected by a homogeneous LANCE cAMP assay based on the TR-FRET (time resolved fluorescence resonance energy transfer) between a europium-labeled cAMP tracer complex and a cAMP-specific antibody labeled with Alexa Fluor 647. The europium-labeled cAMP tracer complex is formed by the tight interaction between Biotin-cAMP (b-cAMP) and streptavidin labeled with Europium-W8044 chelate (Eu-SA). Light pulse at 320 nm excites the europium of the cAMP tracer and the energy emitted is transferred to the Alexa molecule bound to the cAMP antibody, generating a TR-FRET signal at 665 nm. Residual energy from the europium will produce a light at 620 nm. The native unlabeled cAMP from cell lysates competes with the europium-cAMP tracer for antibody binding and reversely reduces the emission signal of Alexa by interrupting FRET between the two labeled molecules. Both emission signals from the FRET donor (620 nm) and the acceptor (665 nm) can be detected by a plate reader in the TRF mode. Expression of result in fluorescence ratio (665 nm/620 nm) helps to normalize differences due to cell density and reagent dispensing. This assay was successfully optimized to a 1536-well plate format.
# NCGC Assay Protocol Summary: A Chinese hamster ovary (CHO) cell line stably expressing the NPS receptor (CHO-NPSR) was obtained from Dr. Heilig lab at NIAAA and maintained in F-12 Kaighn's media (Invitrogen, Carlsbad, CA, 21127) supplemented with 10 % FBS, 100 units/ml penicillin, 100 ug/ml streptomycin and 250 ug/ml geneticin at 37C, 5% CO2 in a humidified atmosphere. Before the assay, aliquots of cells were frozen and stored at -135C. The assay was performed in 1536-well format. Data are reported for both the ratio of the two emission wavelengths, and also for the component 'donor' channel, Em2=620. Data were normalized to the controls for basal activity (DMSO only) and 100% inhibition (No NPS control). IC50 values were determined from concentration-response data modeled with the standard Hill equation. NPS 1536-well assay protocol: (1) Fresh or frozen CHO-NPSR cells were suspended in F-12 Kaighn's media supplemented with 10 % FBS, 100 units/ml penicillin and 100 ug/ml streptomycin. Cells were plated at 4 ul/well (1200 cells) to white, tissue culture treated 1536-well plates, and then cultured at 37C, 5 % CO2 for 16 to 30 hours. (2) Add 23 nl/well of compound in DMSO solution. The final titration for each compound was between 0.6 nM and 46 uM. (3) Add 1 ul of stimulation reagent (1X HBSS buffer, 5 mM HEPES, 0.1% BSA, 500 uM RO-201724 (Sigma-Aldrich, B8279), 1.5% Alexa 647-labeled anti-cAMP antibody (from Perkin Elmer), 100 nM NPS) (4) Incubation at 37C, 5 % CO2 for 60 min. (5) Add 1 ul/well detection reagent. Detection reagent was prepared by adding biotin labeled cAMP (4%), streptavidin labeled with Europium-W8044 chelate (1.33%) and TritonX-100 (1%) to detection buffer. […]
# % is set by controls: 0 for no effect and ±100 for the full control effect; potency is the fitted concentration of half-maximal effect.
SMILES,Potency,"activity change, negative = inhibition"
Cc1ccc2nc(-c3cccnc3)cc(C(=O)N3CCN(c4ccc([N+](=O)[O-])cc4)CC3)c2c1,active: 5.01 µM,
Clc1ccc2c(c1)C(N1CCNCC1)=Nc1ccccc1O2,,inactive: 8.28%
O=C(C1=C[C@@H](c2ccc(Br)cc2)C[C@@H](OCCCCO)O1)N1CCN(Cc2ccc3c(c2)OCO3)CC1,,inactive: 51.4%
CC(=O)n1cc([C@@H]2C=C(C(=O)N3CCN(Cc4ccc5c(c4)OCO5)CC3)O[C@H](OCCCCO)C2)c2ccccc21,,inactive: 49.9%
c1ccc(CC2CCN(C3=Nc4cccc5cccc3c45)CC2)cc1,active: 10 µM,
CN(C)CCCN1c2ccccc2CCc2ccc(Cl)cc21,,inactive: -44.5%
CC1=C(C)C(=O)C(CCCCC#CCCCC#CCO)=C(C)C1=O,,inactive: -5.53%
CC1CCN(c2nc(-c3ccccc3)c(C#N)c(=O)[nH]2)CC1,active: 12.6 µM,
CC1=NNC(=O)/C1=C\c1cn(-c2ccccc2)nc1-c1ccc(Cl)cc1,active: 2.51 µM,
O=C(CCC1CCCCC1)NCCN1C2=NC[C@@H](Cc3ccccc3)N2C[C@H]1Cc1ccc(O)cc1,,inactive: 59.6%
CC[C@]1(O)CC2CN(CCc3c([nH]c4ccccc34)[C@@](C(=O)OC)(c3cc4c(cc3OC)N(C=O)[C@H]3[C@@](O)(C(=O)OC)[C@H](OC(C)=O)[C@]5(CC)C=CCN6CC[C@]43[C@@H]65)C2)C1 (stereo not given in full),,inactive: 26.1%
CNCCC=C1c2ccccc2CCc2ccccc21,,inactive: -11.2%
Cc1ccc(/C(=C\CN2CCCC2)c2ccccn2)cc1,,inactive: 11.9%
CCO[C@@H]1OC(C(=O)N2CCCCCCC2)=C[C@H](c2csc3ccccc23)[C@H]1CCCO,,inactive: 48.3%
CCOC(=O)/C(C#N)=C1/C(=O)N(Cc2ccccc2)c2ccccc21,,inactive: -3.68%
CCN(CC)CC#CCOC(=O)C(O)(c1ccccc1)C1CCCCC1 (stereo not given),,inactive: -19.1%
Cc1ccccc1OCc1nc(-c2ccc(NC(=O)c3ccc4c(c3)OCO4)cc2)no1,active: 10 µM,
c1ccc2c(c1)CC/C2=N/Nc1nc2ccccc2[nH]1,active: 7.94 µM,
CN(C)CCN(Cc1cccs1)c1ccccn1,,inactive: 10.3%
CN1CCN(C(=O)C2=C[C@@H](c3coc4ccccc4c3=O)C[C@@H](OCCCCO)O2)CC1,,inactive: -19.1%

SMILES,Potency,"activity change, negative = inhibition"
COC(=O)c1ccc(NC(=O)CCN2CCCCC2)cc1,,inactive: -1.01% [at 46.1 µM]
CC(C)(C)c1ccc(CN2N=Nc3ccccc3S2(=O)=O)cc1,active: 10 µM,
Cc1ccc(NC2=C/C(=N\S(=O)(=O)c3cccs3)c3ccccc3C2=O)c(C)c1,active: 3.98 µM,
COc1cccc(N2CCN(c3ncnc4c3cnn4-c3ccc(C)cc3C)CC2)c1,active: 10 µM,
CCCCSc1cnn(-c2ccccc2)c(=O)c1SCCCC,active: 12.6 µM,
O=C(C1=C[C@@H](c2coc3ccccc3c2=O)C[C@@H](OCc2ccc(CO)cc2)O1)N1CCN(Cc2ccc3c(c2)OCO3)CC1,,inactive: 48.9%
CC(=O)Nc1ccc(NC2=C/C(=N/S(=O)(=O)c3cccs3)c3ccccc3C2=O)cc1,active: 7.94 µM,
O=C(NC1CC1)C1=C[C@@H](C2CCCCC2)C[C@@H](OCc2ccc(CO)cc2)O1,,inactive: 30.2%
CCO[C@@H]1OC(C(=O)O)=C[C@H](c2csc3ccccc23)[C@H]1CCCO,,inactive: -4.98%
O=C(C1=C[C@@H](C2CCCCC2)C[C@@H](OCCCCO)O1)N1CCN(Cc2ccc3c(c2)OCO3)CC1,,inactive: 45.3%
CC(=O)O[C@H]1C(=O)[C@@]2(C)[C@H]([C@H](OC(=O)c3ccccc3)[C@]3(O)C[C@H](OC(=O)[C@H](O)C(NC(=O)c4ccccc4)c4ccccc4)C(C)=C1C3(C)C)[C@]1(OC(C)=O)CO[C@@H]1C[C@@H]2O (stereo not given in full),,inactive: -36.5%
CCc1ccc2nc(N3C(=O)C(O)=C(C(=O)c4ccco4)C3c3cccs3)sc2c1 (stereo not given),active: 10 µM,
CC(C)(C)[C@]1(O)CCN2C[C@H]3c4ccccc4CCc4cccc(c43)[C@@H]2C1,,inactive: -39.9%
COc1ccc(C2=C(CN(C)C)C(c3ccccc3)c3ccccc3O2)cc1 (stereo not given),,inactive: -17.2% [at 46.1 µM]
O=C(COC(=O)CCc1ccc(S(=O)(=O)N2CCOCC2)cc1)Nc1ccc(Cl)cn1,,inactive: -0.096%
CCCNCC(O)COc1ccccc1C(=O)CCc1ccccc1 (stereo not given),inactive,
O=[N+]([O-])c1cccc2cn[nH]c12,,inactive: 17.1%
CCC(C)N(C)C(=O)c1cc2ccccc2c(-c2ccccc2Cl)n1 (stereo not given),,inactive: -32.6%
Cc1nc2nc(C)c(CCC(=O)NCCCN3CCN(c4cccc(Cl)c4)CC3)c(C)n2n1,,inactive: 6.08%
Cc1ccc2c(Cl)c(C(=O)Nc3ccc4c(c3)OCO4)sc2c1,active: 6.31 µM,
